Hit rate of the full screen: of about 310,000 compounds, about 2,200 (0.71%) showed an effect of 50% or more. The effect is printed as a negative number. This is one part of the list.
Molecular target: human ether-à-go-go-related gene (hERG) potassium channel (human, UniProt Q12809)
Test: primary screen, population patch clamp on CHO cells stably expressing hERG

Sequence of human ether-à-go-go-related gene (hERG) potassium channel (Q12809 whole entry, looked up): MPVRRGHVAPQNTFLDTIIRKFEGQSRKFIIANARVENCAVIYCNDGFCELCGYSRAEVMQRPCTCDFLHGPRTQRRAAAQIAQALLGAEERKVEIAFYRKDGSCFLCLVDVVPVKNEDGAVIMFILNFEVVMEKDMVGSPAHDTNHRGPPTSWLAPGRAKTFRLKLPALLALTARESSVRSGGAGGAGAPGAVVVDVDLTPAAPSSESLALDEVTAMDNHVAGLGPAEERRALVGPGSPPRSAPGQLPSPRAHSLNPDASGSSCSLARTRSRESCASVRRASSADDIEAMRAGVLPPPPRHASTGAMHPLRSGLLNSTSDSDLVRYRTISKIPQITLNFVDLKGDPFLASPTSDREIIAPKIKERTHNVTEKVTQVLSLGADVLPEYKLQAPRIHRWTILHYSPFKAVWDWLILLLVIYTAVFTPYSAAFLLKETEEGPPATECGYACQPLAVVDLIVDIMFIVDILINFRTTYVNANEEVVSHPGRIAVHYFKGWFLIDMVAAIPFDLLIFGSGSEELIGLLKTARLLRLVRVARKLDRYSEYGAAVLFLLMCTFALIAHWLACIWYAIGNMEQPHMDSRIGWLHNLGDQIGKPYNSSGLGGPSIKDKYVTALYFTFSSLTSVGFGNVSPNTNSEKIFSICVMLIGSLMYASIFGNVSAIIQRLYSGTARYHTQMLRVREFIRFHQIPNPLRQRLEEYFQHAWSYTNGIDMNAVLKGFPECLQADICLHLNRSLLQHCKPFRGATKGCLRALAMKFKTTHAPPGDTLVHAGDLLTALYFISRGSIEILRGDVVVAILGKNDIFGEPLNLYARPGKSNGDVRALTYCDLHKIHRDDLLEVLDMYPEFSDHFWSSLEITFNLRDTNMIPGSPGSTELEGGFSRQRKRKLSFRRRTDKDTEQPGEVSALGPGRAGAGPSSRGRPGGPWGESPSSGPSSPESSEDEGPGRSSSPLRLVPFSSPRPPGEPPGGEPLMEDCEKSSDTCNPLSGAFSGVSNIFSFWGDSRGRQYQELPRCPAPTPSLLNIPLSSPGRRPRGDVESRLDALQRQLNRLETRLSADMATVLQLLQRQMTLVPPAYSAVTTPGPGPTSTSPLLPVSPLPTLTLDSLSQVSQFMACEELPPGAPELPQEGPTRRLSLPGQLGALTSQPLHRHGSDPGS

| Structure (SMILES) | hERG current change (%, negative = inhibition) at 1uM |
| --- | --- |
| CCCCn1cc2c(c1-c1cccc(C)c1)c(=O)n(C)c(=O)n2C | 7.03% |
| CCN(C(=O)CO/N=C/c1ccc(OC)cc1OC)c1c(N)n(Cc2ccccc2)c(=O)[nH]c1=O | 4.92% |
| Cc1ccc2nc3c(c(Nc4ccc5c(c4)OCCO5)c2c1)CCC3.Cl | -5.67% |
| O=C(COc1ccc(S(=O)(=O)NC2CCCCC2)cc1)NC1CC1 | 7.81% |
| CCO[C@H]1OC(C(N)=O)=C[C@@H](C(C)(C)C)[C@@H]1CCCO | 16.9% |
| CCc1ncc(CN2CCCC(C(=O)Nc3ccc(-c4cscn4)cc3)C2)cn1 (stereo not drawn) | 7.12% |
| CCN1CCN(Cc2c(O)c(Cl)cc3c(C)cc(=O)oc23)CC1 | -7.05% |
| Cc1ccc(CNC(=S)NC2CCCCC2)cc1 | 9.07% |
| CC1CC(C)CN(S(=O)(=O)c2ccc(NC(=S)NC(=O)c3ccccc3)cc2)C1 (stereo not drawn) | 2.58% |
| COC(=O)N/N=C/c1cn(CCOc2ccc(OC)cc2)c2ccccc12 | 17.1% |
| COc1ccccc1N(Cc1ccccc1)S(=O)(=O)c1cccc(C(=O)Nc2cc(C)ccn2)c1 | 19.1% |
| CCOC(=O)C1CCN(c2cc3c(cc2NC(=O)c2ccc(OC)c(OC)c2)n(C)c(=O)n3C)CC1 | 17.4% |
| Cc1cccnc1NC(=O)c1ccccc1NC(=O)C(C)(C)C | 9.13% |
| CCOc1ccc(NC(=O)c2c(NC(=O)CN3CCCC3)sc3c2CCC3)cc1 | 13.6% |
| O=C(NC(=S)Nc1ccccc1)C1CCCCC1 | 6.36% |
| Cc1c(C(=O)Nc2ccccn2)sc2nc3n(c(=O)c12)CCC3 | 10.1% |
| COc1ccc(OC)c(N(CC(=O)N2CCc3ccccc3C2)S(C)(=O)=O)c1 | 2.1% |
| CCn1c(C)nc2cc(C(=O)NNC(=S)Nc3ccc(Cl)cc3)ccc21 | 9.6% |
| CC(C)(CNC(=O)c1cc([N+](=O)[O-])ccc1N1CCC(Cc2ccccc2)CC1)N1CCOCC1 | 2.46% |
| CC1CCc2c(nc3ncnn3c2N2CC(C)OC(C)C2)C1 (stereo not drawn) | 12.5% |
| Cc1ccc(NC(=O)C2CCCN(S(=O)(=O)c3c(C)noc3C)C2)cc1F (stereo not drawn) | 8.2% |
| COC(=O)c1cscc1NC(C)=O | 15.2% |
| Cc1nnc(SCC(=O)Nc2c(Cl)cccc2Cl)n(N)c1=O | 17.8% |

| Structure (SMILES) | hERG current change (%, negative = inhibition) at 1uM |
| --- | --- |
| CCOc1ccccc1N1CCN(C(=O)NC2CCCCC2)CC1 | 7.29% |
| COc1cc(C(=O)N2CC(C)OC(C)C2)c([N+](=O)[O-])cc1OC (stereo not drawn) | 6.35% |
| Cc1ccc(S(=O)(=O)NCCSc2nnnn2-c2ccc(C(N)=O)cc2)cc1 | 7.74% |
| Cc1ccc(CC(=O)NC2CCN(Cc3ccccc3)CC2)cc1 | 7.9% |
| CNCCCN1c2ccccc2CCc2ccccc21.Cl | 10.4% |
| CCOC(=O)N1CCN(c2ccc([N+](=O)[O-])cc2)CC1 | -30.9% |
| O=C(O)c1cc([N+](=O)[O-])c(NCc2cccnc2)c([N+](=O)[O-])c1 | 14% |
| Cc1cc2cccc(C)c2nc1SCC(=O)NC1CCCCC1 | 9.02% |
| Cc1ccc(S(=O)(=O)N2CCC(C(N)=O)CC2)cc1[N+](=O)[O-] | 9.67% |
| O=C(NC1CC(=O)N(c2ccccc2)C1)N1CCN(C(=O)c2ccco2)CC1 (stereo not drawn) | 8.15% |
| FC(F)(F)c1cccc(NC(=S)N2CCN(c3ccccc3)CC2)c1 | 8.68% |
| CCOC(=O)CNC(=O)CSc1nc(-c2cccc(C)c2)ns1 | 7.97% |
| O=C(NCc1ccccc1)Oc1cccc(Cl)c1 | 16% |
| CCCCCNCC(=O)Nc1cc(C(F)(F)F)ccc1OCCOC | -5.74% |
| CC(=O)c1cc2c(cc1NC(=O)CSc1nnc(C)s1)OCO2 | 4.66% |
| O=C(NCCCNC(=O)c1ccc(Cl)cc1Cl)c1cnccn1 | 13.7% |
| Cc1ccc(S(=O)(=O)Nc2csc(C)c2C(=O)O)cc1 | 8.22% |
| CCOC(=O)NN1C(=O)c2ccccc2NC1c1ccccc1 (stereo not drawn) | -1.25% |
| O=C(Cn1nnc(-c2ccccc2F)n1)Nc1ccc2c(c1)OCO2 | 11.4% |
| COc1ccccc1COn1c(=O)c(-c2ccco2)[n+]([O-])c2ccccc21 | 6.12% |
| Fc1cccc(F)c1-n1c(CN2CCCC2)csc1=S | 3.31% |
| S=C(NCCCc1ccccc1)NC1CCCCC1 | 11.7% |
| Cc1nn(-c2ccccc2)c2sc(C(=O)N(CC(=O)NC(C)(C)C)Cc3ccco3)cc12 | -1.39% |

| Structure (SMILES) | hERG current change (%, negative = inhibition) at 1uM |
| --- | --- |
| CC(CCn1cccn1)NC(=O)c1cc(COc2ccc(F)cc2F)on1 (stereo not drawn) | -1.04% |
| COC(=O)C1=C(c2ccc(C(C)=O)cc2)C[C@@H]2CC[C@H]1N2C(=O)N1CCC(O)CC1 | 15.6% |
| O=P(OC1CCS(=O)(=O)C1)(c1ccccc1)c1ccccc1 (stereo not drawn) | 12.3% |
| CC(=O)c1ccc(N2CCN(S(=O)(=O)c3cccc4nonc34)CC2)cc1 | 5.71% |
| CNc1nc(-c2ccccc2)[n+](-c2ccc(C)cc2)s1.[Br-] | -3.4% |
| CC(C)(C)c1ccc(OCCCNCc2ccccc2)cc1.O=C(O)C(=O)O | 8.06% |
| CC1CCCC(C)N1C(=O)CSc1nc2ncnc(N)c2[nH]1 (stereo not drawn) | -6.34% |
| COc1ccc(S(=O)(=O)Nc2ccccc2C(N)=O)cc1OC | 7.16% |
| CCCCn1c(N)c(N(CCC(C)C)C(=O)COC(=O)c2sccc2C)c(=O)[nH]c1=O | 4.72% |
| Cc1cc(C)nc(/N=C(\N)c2c(O)[nH]c(=O)[nH]c2=O)n1 | 6.07% |
| CC(=O)C1=C(O)C(=O)N(c2ccc(S(=O)(=O)Nc3nccs3)cc2)C1c1ccc([N+](=O)[O-])cc1 (stereo not drawn) | 16.8% |
| COc1cc(C(=O)OC2CCOC2=O)c([N+](=O)[O-])cc1OC (stereo not drawn) | 14.8% |
| CCCCn1c(N)c(N(CCC(C)C)C(=O)CN2C(=O)C3CCCCC3C2=O)c(=O)[nH]c1=O (stereo not drawn) | 8.37% |
| COC(=O)CCC(=O)Nc1cccc(Br)c1 | 7.99% |
| Cc1cccc(C)c1Nc1c(-c2ccccn2)nc2ccccn12 | -0.742% |
| CC1=C(C(=O)OCc2ccccc2)C(c2ccccn2)c2c(n(C)c(=O)n(C)c2=O)N1 (stereo not drawn) | 0.653% |
| Cc1ccc2nc(N(CCCN(C)C)C(=O)c3ccc(Br)s3)sc2c1.Cl | -6% |
| COC(=O)c1c(C)[nH]c(C(=O)CSc2nnnn2-c2ccccc2)c1C | 10.9% |
| O=C(Cc1ccccc1)Nc1c(C(=O)N2CCOCC2)cnn1-c1ccccc1 | 20.8% |
| COCCn1c(SCC(=O)Nc2ccccc2F)nc2c([nH]c3ccccc32)c1=O | 7.71% |
| CC(NCc1cccs1)C(=O)NC1CCCCC1.O=C(O)C(=O)O (stereo not drawn) | 13.4% |
| Cc1ccc(-c2csc(-c3c[nH]c4ccccc34)n2)c(C)c1 | 7.51% |
| CCOC(=O)C1CCN(c2ncnc3c(C)csc23)CC1 | 12.7% |

| Structure (SMILES) | hERG current change (%, negative = inhibition) at 1uM |
| --- | --- |
| Cc1ccc(C(=O)COC(=O)c2cnccn2)cc1[N+](=O)[O-] | 4.16% |
| Cc1ccc(NC(=O)c2nc[nH]c2C(=O)N2CCN(c3ccccc3)CC2)cc1 | 8.95% |
| CCN(CC)c1ccc(C=C2C(=O)OC(C)(C(C)(C)C)OC2=O)cc1 (stereo not drawn) | 9.12% |
| CCn1c(=O)c(C(=O)NCc2ccc(F)cc2)c(O)c2ccccc21 | 14.3% |
| COc1cc(NC(=O)c2ccc(Cl)cc2)c2ncccc2c1 | 13.9% |
| CO/N=C/CC(=O)c1ccc(OC)cc1 | 14.3% |
| CC1(c2nnc(Cc3ccccc3)o2)CC(c2ccc([N+](=O)[O-])cc2)=NO1 (stereo not drawn) | -20.8% |
| CC(C)CC(=O)OCC(=O)Nc1ccccc1Sc1ccccc1 | 11.1% |
| Cc1ccccc1OCC(=O)OC(C)CN1CCN(C)CC1.Cl (stereo not drawn) | 13.2% |
| CCn1c(COc2ccccc2C)nnc1SCC(=O)Nc1cc(C)on1 | 6.02% |
| COc1ccc(-n2nc(C(N)=O)c(O)cc2=O)cc1 | 11.4% |
| CCCN1CCC(NCc2cn(C)nc2-c2ccc(Oc3ccccc3)cc2)CC1 | 18.7% |
| C=CCC(=O)N1CCCC(CCC(=O)NCc2ccccc2F)C1 (stereo not drawn) | 14.4% |
| CC1(C)C(=O)N(OCc2ccccc2)C(C)(C)C(=O)N1OCc1ccccc1 | 2.68% |
| COc1ccccc1C(=O)NNC(=O)C1CCN(C(=O)OC(C)(C)C)CC1 | 9.25% |
| CCOC(=O)C1=C(C)N(CCO)C(=O)NC1c1ccccc1 (stereo not drawn) | -1.43% |
| CSc1nc2ccccc2n1Cc1cccc([N+](=O)[O-])c1 | -13% |
| COc1ccc2c(C)cc(SC3CCOC3=O)nc2c1 (stereo not drawn) | 3.34% |
| CCC(CC)C(=O)Nc1cccc(C(=O)N2CCCCCC2)c1 | 1.72% |
| C=CCSC1=C(C#N)C(c2cccc(OC)c2)CC(=O)N1 (stereo not drawn) | 0.746% |
| Cc1cc(/C=C2\C(=N)N3N=C(C(C)C)SC3=NC2=O)c(C)n1Cc1ccccc1 | 12.4% |

From publication PMC4336329 (PLoS ONE, 2015)
